Results on 84 variants are retold here after the RNAGym collection of RNA variant scans (doi:10.7554/elife.90254).

Read counts are not given, so values of variants with three or more changes are uncertain.

The labels stand for the following.
B1: OR4K15 (parent)
chain: GUUAACGGUCAUAGGCCAUGGAAACUAGGAGCACCAUUUCGCUGCCAGUGAAGAAAUGAACAAAGAAAAUCUGGGCCAGGCAGGCAUCAAAAGAAAUAGUCUUGCGCUCAACCAGAAAGUCUGUAAUCAUUUUAAGGGUA

In the series the parent is B1. The series is described as follows: self-cleavage, relative activity (ratio to wild type); higher = more cleavage; in vitro, sequencing; the parent is a self-cleaving ribozyme.
Consider U2C A13G U39C A51G, for which the self-cleavage worked out at 0.51.

Turning to G1A A90G A114U, the self-cleavage was determined as 0.04.

Take U2A A18U A52G: the self-cleavage is 0.77.

With U2C A23G A47G A60G, the self-cleavage was determined as 0.55.

Take U2C A11C U49A A111G A135G: the self-cleavage was 0.

For U2A A89G A96G, the self-cleavage turned out to be 0.28.

For U2C A33G A111U, the self-cleavage is 0.08.

U2C A13G C35U: the self-cleavage was found to be 0.86.

As to U2A C6A A55G A60G A67G, the self-cleavage amounted to 0.73.

G1A A36G U57A A86G U124C: the self-cleavage was 0.52.

U2C A4G A23G A24G A78U: the self-cleavage was determined as 0.19.

As to U2C A24G A36G, the self-cleavage was 0.79.

Regarding U2C A23G A56G A66G, the self-cleavage turned out to be 1.12.

As to U2A U57A A66G A90G U108A A135G, the self-cleavage stood at 0.

For the variant U2A A63G U87C U127C, the self-cleavage worked out at 1.73.

Take U2C A47G A51G U130C: the self-cleavage came out at 0.46.

Consider U2C A5U A110U A118G, for which the self-cleavage turned out to be 0.37.

U2A A86G A89U U108C: the self-cleavage was 0.04.

For U2A A59G U102C, the self-cleavage stood at 1.11.

As for U2A A18G U72A A96G, the self-cleavage came to 0.49.

Regarding U2A A51G U122C, the self-cleavage amounted to 0.62.

For the variant U2C A24G U39C U122C, the self-cleavage stood at 1.07.

On to U2C A11U U38C, for which the self-cleavage is 1.

With U2A U124C U132C, the self-cleavage was found to be 1.32.

On to U2C A33G A140G, for which the self-cleavage turned out to be 0.82.

Regarding U2A U57C U97C A118G, the self-cleavage worked out at 0.46.

For U2C A27U A54G A63U U97G U108C, the self-cleavage was 0.03.

In the case of G1A A69G U122A, the self-cleavage is 1.24.

As to U2A G41U U87C, the self-cleavage stood at 1.45.

With U2C A22G C45A A66G U127C A140U, the self-cleavage worked out at 0.18.

For U2C A24C A54G A86U, the self-cleavage turned out to be 1.5.

As to U2C A51G C61U A69G A111G, the self-cleavage is 0.13.

On to G1A A24G A95U A125G U130C, for which the self-cleavage amounted to 0.24.

As to U2C A23G A68G G115U, the self-cleavage is 0.24.

In the case of G1A A18G A52G A68G U70C A111G, the self-cleavage worked out at 0.08.

For U2C A18G A59G A90G A96G, the self-cleavage is 1.36.

For U2C A18U A60U A86G A96G U102C U103A A117G, the self-cleavage is 0.17.

Regarding U2C A5G A96G U124A, the self-cleavage came to 0.5.

Take U2A A22G A69G: the self-cleavage was found to be 1.24.

On to U2A U43A A47G A95G, for which the self-cleavage is 1.29.

Take U2C A51G A62G: the self-cleavage amounted to 1.05.

For the variant G1A A18G U19G A55U A135G, the self-cleavage came out at 0.92.

Regarding G1U A52G G53A A64U A89G U108A A110G U132C A135U, the self-cleavage stood at 0.

Turning to U2C A33U G115A A117C U132A, the self-cleavage worked out at 0.07.

As to G1A U2C U38C G75C, the self-cleavage worked out at 0.26.

With U2C A24G A33G U100C, the self-cleavage turned out to be 1.22.

For G1A A22G A56G A59G, the self-cleavage came to 1.31.

Turning to U2C A47U G104A, the self-cleavage came to 0.

Regarding G1A G106A U122C, the self-cleavage came out at 0.01.

As to U2A A33U A54G U103C U131C, the self-cleavage turned out to be 0.38.

As for U2C A52G U57C A96G, the self-cleavage worked out at 0.68.

Consider U2C A11G A54U C105U, for which the self-cleavage stood at 0.35.

On to U2C A5U A22U U100C, for which the self-cleavage turned out to be 1.07.

Take U2C A11G A23G A36U U120A U132A: the self-cleavage was 1.42.

In the case of G1A A90G A111G, the self-cleavage worked out at 0.03.

Regarding U2C A24G U108C A135G, the self-cleavage came out at 0.05.

With U2A U12C A82U A117U U127C A134G, the self-cleavage was found to be 0.15.

Take U2C A30G U38G A59G A92G A111G A117U: the self-cleavage was 0.02.

In the case of U2C A30G A89G A110G, the self-cleavage turned out to be 0.04.

On to U2A A91G U132C, for which the self-cleavage was 0.61.

As for U2A A117U U120C, the self-cleavage was determined as 0.25.

Regarding U2C A22U U43A A98U U102G U103A, the self-cleavage was 0.41.

Regarding U2C A22G A60G A69G A89G, the self-cleavage was determined as 0.59.

Regarding U2A A23G A33U G41U A82G, the self-cleavage was found to be 0.71.

As for U2A A95G A117G, the self-cleavage worked out at 1.92.

Turning to U2C A24G U37C U70A G104A, the self-cleavage came out at 0.09.

U2A A96G A117G: the self-cleavage worked out at 2.19.

Consider U2A A22U U43A, for which the self-cleavage stood at 0.57.

With U2A U9C A54G G80U U132C, the self-cleavage came to 0.23.

For U2A U39C U43G A116G, the self-cleavage was found to be 0.8.

Turning to U2C A30G A59U A95G, the self-cleavage was found to be 0.99.

As for U2C A22U A24U A55G, the self-cleavage was 1.54.

With G1A A56G A62U, the self-cleavage stood at 1.62.

On to U2A A18U A117G, for which the self-cleavage stood at 1.53.

For U2C A52G U120C, the self-cleavage was determined as 1.7.

Regarding U2C A4G U12C U108C A118G, the self-cleavage was 0.03.

Consider U2A A4G A55G A59U A90G, for which the self-cleavage was 0.97.

Regarding U2A A24G A27G A54C U120G, the self-cleavage turned out to be 1.3.

Turning to U2A A91G U139A, the self-cleavage was determined as 1.06.

U2C A52G A55U A66G: the self-cleavage worked out at 0.77.

Consider U2C A22U A56G A62G U87A A125G, for which the self-cleavage turned out to be 0.24.

For U2A A60G U133C, the self-cleavage was found to be 1.79.

As for U2A U37C A82G A94G A116G A118G U133C, the self-cleavage came out at 0.05.

Take U2C A47G A62G A64U U70C U102G U122C: the self-cleavage is 0.15.
